PubChem BioAssay AID488969 (Vanderbilt High Throughput Screening Facility, 2010)
Whole data set: some 110,000 compounds, median “z-score” near -0.1, cut for the highest 2% near 2. Some of the results follow. Active and inactive are the calls of the source.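 How the source made its calls: active means z-score in the third read window above 3 or below -3; inactive means the rest.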

The compounds below were run against Metabotropic glutamate receptor 8 (Rattus norvegicus) (UniProt P70579) (assay: mGluR8 Gi/Go-coupled signaling modulation – cell-based, rat, thallium flux, HTS, primary screen (AID 488969)). Conditions: HEK293 rat mGluR8, GIRK (G protein-gated inwardly rectifying potassium channel) thallium flux, FluoZin2; at 10 µM; stronger effect = higher value; submaximal glutamate (EC20) added with thallium.
Sequence of UniProt P70579 (P70579 whole entry, looked up): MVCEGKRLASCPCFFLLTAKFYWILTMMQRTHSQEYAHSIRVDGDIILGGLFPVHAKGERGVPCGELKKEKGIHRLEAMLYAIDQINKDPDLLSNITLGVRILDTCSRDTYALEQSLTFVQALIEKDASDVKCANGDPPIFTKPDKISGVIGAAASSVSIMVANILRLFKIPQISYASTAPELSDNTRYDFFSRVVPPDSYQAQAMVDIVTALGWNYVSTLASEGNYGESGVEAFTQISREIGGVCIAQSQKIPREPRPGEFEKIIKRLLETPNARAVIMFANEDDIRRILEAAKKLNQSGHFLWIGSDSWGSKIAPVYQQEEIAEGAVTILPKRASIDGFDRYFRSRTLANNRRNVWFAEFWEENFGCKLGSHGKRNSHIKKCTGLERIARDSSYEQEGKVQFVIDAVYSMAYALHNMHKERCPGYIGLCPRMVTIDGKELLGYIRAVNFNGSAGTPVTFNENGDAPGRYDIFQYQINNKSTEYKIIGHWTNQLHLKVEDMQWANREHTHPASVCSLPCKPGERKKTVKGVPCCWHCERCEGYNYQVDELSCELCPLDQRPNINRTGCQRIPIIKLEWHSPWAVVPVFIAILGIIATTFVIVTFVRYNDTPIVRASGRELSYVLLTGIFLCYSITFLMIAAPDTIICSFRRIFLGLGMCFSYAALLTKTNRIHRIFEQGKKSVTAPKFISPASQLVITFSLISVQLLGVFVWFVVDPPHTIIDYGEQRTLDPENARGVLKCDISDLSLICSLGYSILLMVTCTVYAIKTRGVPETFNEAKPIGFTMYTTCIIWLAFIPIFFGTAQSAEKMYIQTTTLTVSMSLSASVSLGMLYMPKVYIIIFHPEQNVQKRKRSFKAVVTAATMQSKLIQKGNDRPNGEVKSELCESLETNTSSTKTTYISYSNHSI

SMILES	z-score
CCn1nnc(NC(=O)COc2ccc(C3CCCCC3)cc2)n1	2.13
Cc1nnc(SCCC(C)C)[nH]c1=O	-0.307
COc1cc(/C=N/NC(=O)CNC(=O)c2ccc3c(c2)OCCO3)ccc1O	-0.118
CC(=O)OCCNC(=O)c1cccnc1	-0.0149
CC(=O)c1c(C)[nH]c(C(=O)N2CCCCCC2)c1C	1.14
C=CCNC(=O)c1ccccc1NC(=O)c1ccccc1	0.00566
N#CCCN(Cc1cccnc1)C(=O)Nc1ccccc1	-0.271
COc1ccc(C(O)c2nccn2Cc2ccccc2)cc1OC (stereo not drawn)	-0.853
O=C(Nc1ccccc1-c1nnn(CC(=O)N2CCCc3ccccc32)n1)c1ccco1	-1.68
CCn1nc(C(=O)OCC(=O)c2cc(C)n(Cc3cccs3)c2C)c2ccccc2c1=O	-0.613
O=C(c1ccco1)n1nc(-c2ccco2)nc1SCc1ccccc1	1.94
CC(C)C1CC(CCNCc2ccc(N(C)C)cc2)(c2ccccc2)CCO1 (stereo not drawn)	0.098
Cc1noc(C)c1S(=O)(=O)NC1CCCc2ccccc21 (stereo not drawn)	-0.523
CCN(/N=C/c1cccs1)c1cc(=O)n(C)c(=O)[nH]1	-0.0804
CN1CCN(C(=O)C2CC(c3ccc(F)cc3)=NO2)CC1 (stereo not drawn)	-0.666
COc1cc(-n2nc(C)c3c2OC(N)=C(C#N)C3c2ccccc2)c(Cl)c(Br)c1O (stereo not drawn)	-2.33
CCCCn1c(N)c(NCC(C)C)c(=O)[nH]c1=O	-0.134
COc1ccc(C/C(N)=N/OC(=O)c2cccc([N+](=O)[O-])c2)cc1	-0.159
COC(=O)c1sccc1NC(=O)c1c(C)noc1C	-0.227
O=[N+]([O-])c1ccc(-c2nc(-c3cccs3)c(-c3cccs3)[nH]2)cc1	-0.0835
O=C(NCc1cccnc1)c1cn(CCc2ccccc2)nn1	-0.908
O=C(Cn1cnc2c(nnn2Cc2ccc(F)cc2)c1=O)N1CCN(c2ccccc2)CC1	-0.0198
CCOC(=O)c1sc2nc(CC(=O)OC)nc(N3CCN(c4ccc(OC)cc4)CC3)c2c1C	-0.181

SMILES	z-score
COc1ccc(-c2nc(CS(=O)CC(=O)NCc3ccc4c(c3)OCO4)c(C)o2)cc1 (stereo not drawn)	-0.429
Cc1ccc(NC(=O)NC(=O)CSc2nnnn2C)c(C)c1	-0.438
Cc1cc(C)c2nc(N3CCCC(C(=O)N4CCN(c5ncccn5)CC4)C3)sc2c1 (stereo not drawn)	0.0411
O=S(=O)(c1ccc2oc3ccccc3c2c1)N1CCOCC1	-0.195
Cc1cccc(N2CCN(C(=O)C(NS(=O)(=O)c3cccs3)c3ccccc3)CC2)c1C (stereo not drawn)	0.407
CCOC(=O)c1c(P(=O)(N2CCOCC2)N2CCOCC2)noc1N	-0.0555
O=C(CCCSc1nnnn1-c1cccc2ccccc12)c1ccc(F)cc1	-0.0209
CCOc1ccc(N(CC(=O)Nc2ccccc2C(=O)N2CCOCC2)S(=O)(=O)c2ccc(F)cc2)cc1	-0.168
CCCn1c(SCC(=O)Nc2cc(C)on2)nc2c1c(=O)n(C)c(=O)n2C	-0.515
COc1cccc(-c2csc(N3CCN(C(=O)NC45CC6CC(CC(C6)C4)C5)CC3)n2)c1	0.286
O=C(c1cccs1)N1CCC(c2nc(-c3ccc(S(=O)(=O)N4CCOCC4)cc3)no2)CC1	-0.344
Cc1c(C(=O)OC(C)C(C)C[N+](C)(C)C)oc2ccccc12 (stereo not drawn)	-0.419
O=C(NCc1ccco1)c1ccccc1F	0.717
CCOC(=O)N1CCN(CC(O)COCC2=CCC3CC2C3(C)C)CC1 (stereo not drawn)	-0.486
Cc1ccccc1CN1CCN(CC(=O)NCc2ccccn2)C1=O	0.684
N#CCCN1CCN(S(=O)(=O)c2ccc(C#N)cc2)CC1	-0.131
Cc1csc(OCC(=O)Nc2ccc(C)c(C)c2)n1	0.461
O=C(NCc1cccnc1)C1CC2c3ccccc3C1c1ccccc12 (stereo not drawn)	-0.134
COc1ccc(OC)c(NC(=O)CCCN2C(=S)NC(C)(C)CC2C)c1 (stereo not drawn)	-0.309
CC(C)Sc1nc2ccccc2c(=O)[nH]1	-0.257
CCc1ccc2ncc(S(=O)(=O)c3ccc(C)c(C)c3)c(N3CCCC3)c2c1	-0.506
Cc1ccc(C)c(N2CCN(C(=O)c3cn(C)c4ccc(S(=O)(=O)N(C)C)cc4c3=O)CC2)c1	-0.414
Cn1c(SCC(=O)c2ccc(F)cc2)nnc1-c1ccccc1N	-0.0125

SMILES	z-score
CC(=O)c1cc2c(cc1NC(=O)CCC1CCCC1)OCO2	0.181
O=C(Nc1ccccc1)C(=O)Nc1ccccn1	-0.125
C=CCOC(=O)C1=C(C)NC(SCC(=O)Nc2ccc(C)c(Cl)c2)=C(C#N)C1c1ccco1 (stereo not drawn)	-0.468
Cc1ccccc1NCc1ccc(O)c2ncccc12	0.65
Clc1ccc(Sc2cc(N3CCOCC3)nc(-c3ccccc3)n2)cc1	-0.294
CCNc1c2c(nc3ccccc13)CC(C)(C)CC2=O	-0.0295
CCCCCc1ccc(-c2ccc(/C=C/C(=O)O)cc2)nc1	0.148
O=C(c1cccc(Br)c1)N1CCN(C(=O)N2CCOCC2)CC1	0.0709
CCNC(=O)C1CCCN1S(=O)(=O)c1ccc(C)cc1 (stereo not drawn)	-0.513
O=C(/C=C/c1ccco1)N1CCN(c2ncccn2)CC1	-0.252
CC(C)(C)C1=CC(=Nc2ccccc2N)C=C(C(C)(C)C)C1=O	0.127
Cc1ccc(C(=O)Nc2c(C)cc(-c3ccc(Cl)cc3)oc2=O)cc1	1.81
CC1CCCCC1NC(=O)/C(C#N)=C/c1ccc(OCC(N)=O)cc1 (stereo not drawn)	-0.0712
Cc1cccc(C(C)C)c1NC(=O)COC(=O)COc1ccc2c(C)cc(=O)oc2c1	0.217
Cc1ccc(-c2nnn(CC(=O)O)n2)cc1	0.449
CCN(CC)C(=O)CSc1nnc(SCc2ccc(Cl)cc2)s1	0.687
CCN1C(=O)S/C(=C/c2cn(C)c3ccccc23)C1=O	-0.127
Cc1ccc(C)c2c1[nH]c1ccccc12	0.153
O=C(CCCSc1nnc(SCCCC(=O)c2ccc(F)cc2)s1)c1ccc(F)cc1	-0.115
O/N=C/c1cn(-c2ccccc2)nc1-c1ccc2c(c1)OCCO2	-0.458
Cc1ccc(NC(=O)CCCCCC2NC(=O)NC2C)cc1 (stereo not drawn)	-0.0926
COc1ccccc1-c1c(C(F)(F)F)oc2cc(OC(=O)c3ccc([N+](=O)[O-])cc3)ccc2c1=O	-1.55
Cc1ccc(S(=O)(=O)N(C(=O)c2ccncc2)c2ccc(OC(=O)c3ccncc3)c3ccccc23)cc1	0.393

SMILES	z-score
Cc1occc1-c1nnc(SCC(=O)N(C)CCC#N)n1N	0.286
CC(=O)N1N=C(c2ccc(Cl)cc2)OC1(C)C	0.00963
O=C(CNS(=O)(=O)c1ccc(F)cc1)Nc1ccc(C(F)(F)F)cc1	0.512
NC(=O)C1(N2CCCCC2)CCN(CC(=O)Nc2ccccc2Sc2ccccc2)CC1	-0.126
O=C(CN1CCN(Cc2ccc3c(c2)OCO3)CC1)Nc1ccc(F)cc1	-0.502
COc1ccc(C2=C(C=C(C#N)C#N)C(c3ccccc3C)c3ccccc3O2)cc1OC (stereo not drawn)	-0.163
O=C(Cn1ncc2c(=O)oc3ccccc3c21)Nc1nc2ccccc2s1	0.213
COc1ccc2nc(NC(=O)/C=C/c3ccc4c(c3)OCO4)sc2c1	-0.015
COCCNC(=O)C(c1ccc(C)cc1)N(C(=O)CCC(=O)Nc1ccccn1)C1CCCC1 (stereo not drawn)	0.0645
CCCc1ccc(-c2cc(N)n[nH]2)cc1	0.0748
COc1cccc(N=Cc2c(O)n(-c3cccc(C)n3)c(=O)c3ccccc23)c1	-0.226
CCCCCCN1CC(O)=C(c2ccccc2)C1=N	-0.0279
C=C(Cl)COc1ccc2c(CCC)cc(=O)oc2c1	-0.466
CCOc1ccccc1OCC(=O)Nc1nnc(COC)s1	0.236
CC(NC(=O)c1noc2c1CCCCC2)c1ccccc1 (stereo not drawn)	0.232
O=C(COC(=O)c1ccccc1Nc1ccccc1)NCc1ccccc1Cl	0.185
C=CCOn1c(C)c(C(C)=O)c2c3no[n+]([O-])c3ccc21	-0.449
O=C(c1cc2ccccc2oc1=O)N(Cc1ccccc1)CC1CCCO1 (stereo not drawn)	-0.391
CC1CCN(C(NC(=O)c2ccco2)C(=O)c2ccccc2)CC1 (stereo not drawn)	-0.642
Cc1ccc(NC(=O)c2ccc(CSc3nnc(-c4ccncc4)n3C)cc2)c(C)c1	-0.244
CCOc1ccc(NC(=S)NCCCn2ccnc2)cc1	-0.207
Nc1nc(-c2cccnc2)nn1S(=O)(=O)c1ccccc1	0.928
COc1ccccc1NC(=O)CSc1nnc(-c2ccco2)o1	-0.188

SMILES	z-score
O=C(Nc1ccc(-c2nc3ncccc3o2)cc1)c1ccc(Br)o1	-0.16
CC(C)(C)NC(=O)c1cccc(NC(=O)c2cccc(O)c2)c1	0.00192
O=C(Nc1nncs1)c1ccccc1NS(=O)(=O)c1cccs1	active: -3.16
COc1ccc2nc(NC(=O)CN(C)S(=O)(=O)c3cccs3)sc2c1	-0.0626
CC(C)CNC(=O)COC(=O)/C=C/c1ccco1	-0.235
COc1ccc(Nc2nc(C(=O)NCCCN3CCOCC3)cs2)cc1	-0.491
CCOC(=O)/C(=C/C=C1\Sc2ccccc2N1CC)C(C)=O	-2.28
c1ccc(Nc2cccc(Nc3ccccc3)c2)cc1	-0.671
CCn1c(N)c(C(=O)NCC2CCCO2)sc1=S (stereo not drawn)	-0.397
COc1ccc(-c2nnn(CC(=O)N3CCOCC3)n2)cc1	0.18
O=C(CCS(=O)(=O)c1ccc(Br)cc1)Nc1ccc(Cl)cc1F	0.262
Cc1nc(SCc2ccccc2)c(C(F)(F)F)c(=O)[nH]1	-0.0394
CN1OC(COC(=O)c2ccc(Cl)cc2)CC1c1ccccc1 (stereo not drawn)	0.02
Cc1cc(=O)n(C)c(=O)n1CCCCCOc1cccc([N+](=O)[O-])c1	-0.28
COc1ccc(Cl)cc1NC(=S)NCc1ccccn1	-0.0363
Cn1c(CS(=O)Cc2c(Cl)cccc2Cl)nnc1SCc1c(Cl)cccc1Cl (stereo not drawn)	-0.441
O=C(CSc1nc2ccccc2[nH]1)Nc1c(F)cccc1F	-0.135
CC(=O)Nc1ccc(S(=O)(=O)N(C)CC(=O)OCC(=O)Nc2cccnc2Cl)cc1	-0.172
CCOC(=O)c1c(C)n(C)c2ccc(OCC(O)Cn3nc(C)c(Br)c3C)cc12 (stereo not drawn)	0.00821
CCCC(=O)Nc1nc2ccc(C(=O)OCC)cc2s1	0.135
C=CCNc1sc(C(=O)c2ccccc2)c(N)c1-c1nc2ccccc2s1	-0.131
